The other results are listed elsewhere or left out.
System: T1, Caupolican (Caup) homeodomain DNA-binding domain
T1 sequence: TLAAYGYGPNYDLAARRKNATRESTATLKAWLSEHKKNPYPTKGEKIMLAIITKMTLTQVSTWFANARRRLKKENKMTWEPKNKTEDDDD
Assay: PBM E-score (8-mer, recovered from the published 9-mer minima) (E-score (dimensionless, -0.5 to 0.5)); Drosophila protein; higher = stronger relative binding preference, active = 0.31 or more
Method in brief: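 Caup's homeodomain DNA-binding domain (residues 214-303) was produced by in vitro transcription and translation and applied at 100 nM to custom-designed protein binding microarrays. Each value is an enrichment score giving relative binding preference for a short DNA word; higher means stronger. Published 9-mer scores were the minimum of their two constituent 8-mer scores, and the 8-mer values were recovered from those minima. A cutoff of 0.31 marks candidate binding sequences.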

Sequence | PBM E-score
CCCTCCCG | inactive: -0.29
GAGCCATC | inactive: -0.148
AAAGCGCA | inactive: -0.165
CTAAAATA | inactive: 0.0383
AAATAATC | inactive: 0.101
ACGCGTTC | inactive: -0.0271
TGGGCAAA | inactive: -0.149
CGACTCCG | inactive: -0.233
CTCAGTGC | inactive: -0.159
CGGGTACG | inactive: -0.113
CTTAGCCA | inactive: -0.0617
CATAACTA | inactive: 0.155
GAGGAGAA | inactive: -0.0843
CAGGGAGC | inactive: -0.191
CACATTTC | inactive: 0.102
CAATACAA | inactive: 0.261
GGTGCCTA | inactive: -0.104
AAAAGATT | inactive: 0.0681
CAGAGCTA | inactive: -0.147
CGCACAAG | inactive: -0.00347
CTAGCGCA | inactive: -0.147
CTCGGGAA | inactive: -0.137
AGTAACAC | inactive: 0.24
ATGGGACC | inactive: -0.0677
CCAATTAG | inactive: 0.0397

Sequence | PBM E-score
CCCCCCAC | inactive: -0.406
CCAGACTA | ≥ 0.0926
ACCAAGCG | inactive: -0.0944
GTCGGCCA | inactive: -0.0886
CCCTAAAA | inactive: -0.107
GGATGAAC | inactive: 0.015
CCGATCAA | inactive: -0.057
GGGCGGAA | inactive: -0.158
ATCGGAAG | inactive: 0.0551
TAATAGTA | inactive: 0.177
CCTAGGAG | inactive: -0.0404
GTTTATTA | inactive: 0.161
GTCCTCCA | inactive: -0.0329
ACATCCAA | inactive: 0.228
ACGGCACA | inactive: 0.00122
AACGGACT | inactive: -0.0289
TATCTAGA | inactive: 0.0449
AGTCAGAA | inactive: 0.00034
CTGGCAAC | inactive: -0.0596
ATAGATCA | ≥ 0.187
AGTTAGAC | inactive: 0.0958
GGTAGCAA | inactive: 0.049
ATGCAAGC | inactive: 0.0571
ATAACACA | inactive: 0.305
AAGTAGTG | inactive: 0.00888

Sequence | PBM E-score
ATTGTTGA | inactive: 0.279
CATATTGC | inactive: -0.025
CATCGGCC | inactive: -0.193
AGGTAGCC | inactive: -0.102
GAAGCAGC | inactive: -0.132
CATGATGG | inactive: 0.042
CGGCACAC | inactive: -0.144
ACAGCCTG | inactive: 0.0595
AGATCATC | inactive: 0.12
CAGGCAGC | inactive: -0.212
ACGCTACT | inactive: -0.0439
ATTTATAA | inactive: 0.0926
CTAGTAAG | inactive: 0.107
ACAGAAGG | inactive: -0.0447
CTTGAGTA | inactive: 0.0779
ATCTAATC | inactive: 0.212
CTTGATTC | inactive: 0.0185
ACCCAACA | inactive: 0.0894
CCGGATGC | inactive: -0.19
ATAGTTGA | inactive: 0.0385
ATACTCTG | inactive: 0.108
AAGGAGAA | inactive: -0.0316
AGAGCTAA | inactive: -0.0655
ACGAAGAG | inactive: 0.049
CCAGATCC | inactive: -0.232

Sequence | PBM E-score
GGCAAACA | inactive: 0.134
CGTGCAAA | inactive: 0.0033
GAGAGTGC | inactive: -0.153
GAACGTGC | inactive: -0.0483
ACGTCGAG | inactive: -0.0187
CCCATTAG | inactive: -0.203
ATATGAGA | ≥ 0.113
ACTAATTG | inactive: 0.121
GCGTGTAA | active: 0.327
AACAACTC | inactive: 0.167
CGCCCTAC | inactive: -0.0951
CGTAGACG | inactive: -0.0639
CGACGTAC | inactive: 0.0495
GTCGAAGA | inactive: 0.0184
GGGCACAA | inactive: -0.115
ACGGTCCG | inactive: -0.154
CCTTGGGC | inactive: -0.299
AGCTTTAG | inactive: -0.0997
CTCTAGAA | inactive: -0.0275
GGGAGAGA | inactive: -0.188
ATCGAATA | ≥ 0.127
AGCTGCCT | inactive: -0.224
CCACCAGA | inactive: -0.0319
TAAATTCA | inactive: 0.0664
GTACATCA | active: 0.383

Sequence | PBM E-score
TCATATAA | inactive: 0.184
CTGAAGAA | inactive: -0.0787
CTCACCAC | inactive: -0.0956
TAACCTAA | inactive: 0.00458
AACCGGTA | inactive: -0.0523
ACCGTGTA | active: 0.359
TAAGCTGA | inactive: 0.033
CAATCCAC | inactive: 0.0669
GTATGCAA | inactive: 0.0814
ATAAACAT | active: 0.321
GAATTGGC | inactive: -0.0814
CTGTAAGA | inactive: 0.138
CCGTCTAA | inactive: -0.111
GTTGAAAA | inactive: 0.0647
AAGGCGAG | inactive: -0.172
CAGTTCAG | inactive: -0.0606
AAAATTAC | inactive: 0.105
ATGAAAAT | ≥ 0.198
TAAGAGGA | inactive: -0.00194
ATGGCCAC | inactive: -0.159
CATCTCCC | inactive: -0.141
CTCACCCC | inactive: -0.125
GTTAACTA | inactive: 0.225
CGTCCCAA | inactive: 0.00097
CCTCATAC | inactive: 0.0479

Sequence | PBM E-score
TCAGTAAA | inactive: 0.0574
CTCAAGAC | inactive: -0.0657
ACCTATAG | inactive: 0.0161
AGGCCATG | inactive: -0.0199
GCAAAAAC | inactive: 0.121
ACAGATGC | inactive: 0.0498
AGTGACTA | inactive: 0.0254
AACAAACC | inactive: 0.161
CGACTGCA | inactive: -0.0454
AACCGACT | inactive: -0.0866
ATGAAAGC | inactive: 0.0313
AGGCACGA | inactive: -0.0862
TTAGGGAA | inactive: 0.0477
CAGAGAAC | inactive: -0.0238
TCTCTACA | inactive: 0.134
GCGGTCCC | inactive: -0.283
GCTTCCTA | inactive: -0.0332
AACAAACG | inactive: 0.114
AGTCTGGA | inactive: 0.0279
CCTCGATA | inactive: 0.0341
ACGCACAA | inactive: 0.0343
AGTCAAAG | inactive: -0.0591
AATGAAGG | inactive: -0.0484
GACTGCCA | inactive: -0.0551
GCCGCCCA | inactive: -0.275

Sequence | PBM E-score
ACGTGCCC | inactive: -0.083
GGCTTTCA | inactive: -0.0986
CGTTGGAG | inactive: -0.106
GTTTCACA | inactive: 0.103
CGGATTAC | inactive: 0.11
CACGCCTA | inactive: -0.0375
CCTAGAGC | inactive: -0.14
CAGATTTC | inactive: -0.0366
GGGGATAC | inactive: -0.108
CAAGTCAC | inactive: 0.0842
GAGCACCC | inactive: -0.226
ACAGTTTA | inactive: 0.115
CGCAACGC | inactive: -0.111
GCGCACAC | inactive: -0.105
TACGGATA | inactive: 0.0883
AGCATAAC | inactive: 0.0955
GCTCGGTA | inactive: -0.0505
GTCAGGGA | inactive: -0.0842
ATGTTCGA | active: 0.34
ATTGACTC | inactive: 0.041
ATTCTACC | inactive: 0.13
GATGACCA | inactive: 0.0255
CACATATC | inactive: 0.277
ATCTGAGA | inactive: 0.0115
CAAAATAA | inactive: 0.0715

Sequence | PBM E-score
AGATACGC | inactive: -0.121
ACGTCCTC | inactive: -0.138
ACATGTGA | active: 0.312
CTGTTGAC | inactive: 0.137
CAGGGTGG | inactive: -0.12
ACTTTATA | inactive: 0.0789
ATACAAGC | active: 0.316
CGACTGGC | inactive: -0.168
CGACCTAG | inactive: -0.0323
AATACACC | inactive: 0.292
AGACTTCC | inactive: -0.148
AGGAATGG | inactive: 0.0254
GATCATAC | inactive: 0.142
ACCGCAAG | inactive: -0.162
CTTTGTCA | inactive: 0.0793
GCCCCAAA | inactive: -0.158
GGCAGACA | inactive: -0.0528
TCGCTTCA | inactive: -0.083
ATAACGTC | inactive: 0.0839
GCTTGAAA | inactive: -0.00961
GCGCTTCC | inactive: -0.169
CATTCTCC | inactive: 0.0295
AGCTACGA | inactive: -0.0245
TCCATCCA | inactive: 0.102
TCCTTCAA | inactive: -0.0696

Sequence | PBM E-score
ACGATGTG | inactive: 0.2
GTCGCTCA | inactive: 0.0271
AAGGCGGG | inactive: -0.214
CTCAGCCC | inactive: -0.18
AGATCTGA | inactive: 0.0307
TCTGTACA | inactive: 0.281
CCTAGTCC | inactive: -0.0964
CGCGTGTA | inactive: 0.285
ACGCGTCG | inactive: 0.014
CGATTTTC | inactive: -0.00776
AAACGACA | inactive: 0.27
CCTCTGCG | inactive: -0.256
AGTATTGA | inactive: 0.13
ACGTAAAG | inactive: 0.129
ACAGGACT | inactive: 0.0647
AAGATGGT | inactive: 0.109
GATAGATA | inactive: 0.08
GATCAGGA | inactive: -0.0452
TGTGAAAA | inactive: 0.058
AAGGAACT | inactive: 0.0172
ACATATAG | inactive: 0.256
CTCCACCC | inactive: -0.208
GATTGCAC | inactive: 0.0881

Source: the supplement of paper PMC3724861
